IC50 is the fitted dose that halves viability relative to control wells, and lower means more sensitive; a fit beyond the top or the lowest dose is shown as a bound at that dose. AUC is the area under the same curve over the 256-fold range up to the top dose, as a fraction; the more sensitive the line, the further below 1. Where the top dose is marked as inferred, it was calculated from the reported fits.
Tests used:
Assay in all cases: Viability of human cancer cell lines after 72 h of drug (GDSC screen)
XMD14-99 = compound: COc1cc(N2CCN(C)CC2)ccc1Nc1nc(N)c(C(=O)c2c(Cl)cccc2Cl)s1 [XMD14-99]; conditions: top dose 10.24 µM; top dose inferred
Description: (§1)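 Human cancer cell lines in 384-well plates, medium with 10% serum, drug for 72 h over a 256-fold dose range (nine 2-fold or five 4-fold steps up to the top dose). Adherent lines were fixed and stained with the nucleic acid dye Syto60, suspension lines read with resazurin; signal relative to control wells, capped at 0 and 100%. One two-parameter sigmoid per drug and line, fitted in a mixed model over all curves with the slope shared within a line.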

FH535 = compound: Cc1cc([N+](=O)[O-])ccc1NS(=O)(=O)c1cc(Cl)ccc1Cl [FH535]; conditions: top dose 32 µM; top dose inferred
Description: as §1

AT-7519 = compound: O=C(NC1CCNCC1)c1n[nH]cc1NC(=O)c1c(Cl)cccc1Cl [AT-7519]; conditions: top dose 10.24 µM; top dose inferred
Description: as §1

Row | Cell Line | AUC (XMD14-99) | IC50 (XMD14-99) [µM] | AUC (FH535) | IC50 (FH535) [µM] | AUC (AT-7519) | IC50 (AT-7519) [µM]
1 | DOK (head and neck, adherent) | 0.976 | > 10.2 | 0.751 | 15.6 | 0.611 | 1.5
2 | PC-14 (lung adenocarcinoma, adherent) | 0.959 | > 10.2 | 0.824 | 16.4 | 0.451 | 0.477
3 | YKG-1 (glioma, adherent) | 0.978 | > 10.2 | 0.596 | 3.68 | 0.686 | 2.14
4 | HuO-3N1 (osteosarcoma, adherent) | 0.981 | > 10.2 | 0.781 | 17.9 | 0.751 | 4.35
5 | SK-LU-1 (lung adenocarcinoma, adherent) | 0.962 | > 10.2 | 0.495 | 1.93 | 0.817 | 7.82
6 | KYM-1 (rhabdomyosarcoma, adherent) | 0.988 | > 10.2 | 0.768 | 10.3 | 0.991 | > 10.2
7 | H2731 (mesothelioma, adherent) | 0.954 | > 10.2 | 0.662 | 6.03 | 0.984 | > 10.2
8 | C-4-I (cervix, adherent) | 0.98 | > 10.2 | 0.6 | 3.85 | 0.912 | > 10.2
9 | DBTRG-05MG (glioma, adherent) | 0.977 | > 10.2 | 0.719 | 9.4 | 0.797 | 5.78
10 | NCI-H3122 (lung adenocarcinoma, adherent) | 0.905 | > 10.2 | 0.658 | 5.58 | 0.46 | 0.495
11 | LC-1-sq (lung squamous cell carcinoma, adherent) | 0.981 | > 10.2 | 0.744 | 11.5 | 0.845 | 9.34
12 | PANC-04-03 (pancreas, adherent) | 0.977 | > 10.2 | 0.826 | > 32 | 0.907 | > 10.2
13 | JHH-6 (liver, adherent) | 0.985 | > 10.2 | 0.556 | 2.86 | 0.912 | > 10.2
14 | U251 (glioma, adherent) | 0.98 | > 10.2 | 0.528 | 2.38 | 0.461 | 0.504
15 | SK-MEL-5 (melanoma, adherent) | 0.975 | > 10.2 |  |  | 0.884 | > 10.2
16 | ESO26 (oesophagus, adherent) | 0.944 | > 10.2 |  |  | 0.455 | 0.486
17 | KYSE-50 (oesophagus, adherent) | 0.935 | > 10.2 | 0.42 | 1.23 | 0.578 | 1.03
18 | MC-IXC (neuroblastoma, adherent) | 0.996 | > 10.2 | 0.549 | 2.63 | 0.498 | 0.631
19 | COLO-680N (oesophagus, adherent) | 0.986 | > 10.2 | 0.732 | 10.5 | 0.726 | 3.21
20 | PANC-03-27 (pancreas, adherent) | 0.989 | > 10.2 | 0.726 | 8.34 | 0.464 | 0.515
21 | OVCAR-8 (ovary, adherent) | 0.99 | > 10.2 | 0.646 | 4.83 | 0.715 | 2.41

Row | Cell Line | AUC (XMD14-99) | IC50 (XMD14-99) [µM] | AUC (FH535) | IC50 (FH535) [µM] | AUC (AT-7519) | IC50 (AT-7519) [µM]
22 | BICR78 (head and neck, adherent) | 0.983 | > 10.2 | 0.853 | 31.5 | 0.865 | > 10.2
23 | 22RV1 (prostate, adherent) | 0.955 | > 10.2 | 0.559 | 3.01 | 0.724 | 3.28
24 | SNU-81 (large intestine, adherent) | 0.982 | > 10.2 |  |  | 0.481 | 0.56
25 | A2780 (ovary, semi-adherent) | 0.854 | 8.57 | 0.669 | 6.03 |  | 
26 | A172 (glioma, adherent) | 0.978 | > 10.2 | 0.634 | 4.63 |  | 
27 | SNU-C5 (large intestine, adherent) | 0.968 | > 10.2 |  |  | 0.794 | 5.25
28 | JHU-029 (head and neck, adherent) |  |  | 0.705 | 8.71 |  | 
29 | OC-314 (ovary, adherent) | 0.981 | > 10.2 |  |  | 0.7 | 2.13
30 | NCI-H1793 (lung adenocarcinoma, adherent) | 0.982 | > 10.2 |  |  | 0.933 | > 10.2
31 | IHH-4 (thyroid, semi-adherent) | 0.99 | > 10.2 | 0.447 | 1.48 |  | 
32 | JHOS-2 (ovary, adherent) | 0.981 | > 10.2 |  |  | 0.918 | > 10.2
33 | NCC021 (kidney, adherent) | 0.957 | > 10.2 |  |  | 0.975 | > 10.2
34 | EMC-BAC-1 (lung adenocarcinoma, adherent) | 0.911 | > 10.2 |  |  | 0.706 | 2.67
35 | NCI-H2052 (mesothelioma, adherent) | 0.97 | > 10.2 |  |  | 0.962 | > 10.2
36 | KMS-11 (myeloma, suspension) | 0.989 | > 10.2 |  |  | 0.761 | 3.15
37 | OVCA420 (ovary, adherent) | 0.981 | > 10.2 |  |  | 0.956 | > 10.2
38 | FLO-1 (oesophagus, adherent) | 0.966 | > 10.2 |  |  | 0.465 | 0.492
39 | RCC-JW (kidney, adherent) | 0.946 | > 10.2 |  |  | 0.317 | 0.194
40 | HCC202 (breast, adherent) |  |  | 0.489 | 1.84 | 0.47 | 0.511
41 | SU-DHL-10 (B-cell lymphoma, suspension) | 0.932 | 8.05 |  |  | 0.231 | 0.143

From the supplement of paper PMC4967469
